{"source": "PubChem BioAssay AID1768", "about": "(National Center for Advancing Translational Sciences (NCATS), 2009)", "note": "Where “and” joins values, the source holds several entries; their conditions need not be identical. Equal values may be shown once. The campaign covered roughly 270,000 compounds. About 620 (0.23%) were called active. Inconclusive results, whose numbers are uncertain, are shown with a selection of clear calls. Calls come from the whole dose curve; as a rule, active = well fitted inhibition curve with a large enough effect in the polarisation, with a control signal flat (not every such curve was filed as active); inconclusive = small, poorly fitted or top-dose-only effect, or effect the other way, or a change in a side signal; inactive = no such curve, though single readings can be large or run the other way; the % refers to the polarisation. Where the call is inconclusive, the potency comes from a doubtful curve fit. A note “side channel” means that the fit belongs to a control or component signal, not to the main read-out. Potency is the fitted concentration of half-maximal effect; tags give direction and shape of the fitted curve or compound fluorescence and quenching."}
{"molecular_target": "Menin (Homo sapiens) (UniProt O00255)", "sequence (O00255 whole entry, looked up)": "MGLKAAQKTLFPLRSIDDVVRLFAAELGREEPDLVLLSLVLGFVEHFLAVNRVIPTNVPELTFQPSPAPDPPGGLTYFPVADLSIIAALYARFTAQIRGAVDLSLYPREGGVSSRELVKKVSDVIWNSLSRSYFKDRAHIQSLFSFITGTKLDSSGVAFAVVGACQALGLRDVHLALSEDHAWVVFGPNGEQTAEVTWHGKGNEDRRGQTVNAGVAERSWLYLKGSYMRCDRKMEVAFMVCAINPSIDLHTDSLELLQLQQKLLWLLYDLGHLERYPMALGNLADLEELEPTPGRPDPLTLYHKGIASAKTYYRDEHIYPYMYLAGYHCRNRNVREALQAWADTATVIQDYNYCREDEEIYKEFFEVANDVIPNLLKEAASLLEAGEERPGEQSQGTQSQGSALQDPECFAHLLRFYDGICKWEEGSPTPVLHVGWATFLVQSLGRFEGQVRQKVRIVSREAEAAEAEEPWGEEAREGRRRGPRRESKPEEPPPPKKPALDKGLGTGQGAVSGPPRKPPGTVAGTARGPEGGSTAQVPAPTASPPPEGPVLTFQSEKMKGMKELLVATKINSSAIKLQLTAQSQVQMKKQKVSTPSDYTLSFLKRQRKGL", "assay": "qHTS Assay for Inhibitors Targeting the Menin-MLL Interaction in MLL Related Leukemias: Competition With Texas Red Labeled MLL-derived Mutant Peptide; for FP activity change, negative = inhibition: % of control where 0% means no effect", "details": "fluorescence polarization; FP activity change, negative = inhibition: at 61.6 µM (top of the series)"}
{"molecule": "Cc1ccc(-c2noc(CCC(=O)NCCN3CCN(Cc4ccccc4)CC3)n2)cc1", "FP activity change, negative = inhibition": "inactive: -22.3%"}
{"molecule": "CCc1ccc(NC(=O)CSc2nc(N)c(NC(=O)c3ccc(F)c(F)c3)c(=O)[nH]2)cc1", "Potency": "inconclusive: 25.1 µM [fluorescent, side channel, partial curve]"}
{"molecule": "C#CCOCCOCCOCCNc1nc(N2CCOCC2)nc(N2CCN(C(=O)[C@H](Cc3ccc(O)cc3)n3cc([C@@H](N)C(C)CC)nn3)CC2)n1", "note": "(stereo partly specified)", "Potency": "inconclusive: 12.6 µM [fluorescent, side channel, partial curve]"}
{"molecule": "CCOC(=O)C1(Cc2cccc(OC)c2)CCCN(Cc2cc(C(C)C)n[nH]2)C1", "note": "(stereo unspecified)", "Potency": "inconclusive: 7.08 µM [fluorescent, side channel, partial curve]"}
{"molecule": "CC(C)(C)OC(=O)N1CCN(C(=O)c2[nH]cnc2C(=O)NCC(=O)OCc2ccccc2)CC1", "Potency": "inconclusive: 3.16 µM [inhibitor, single point]"}
{"molecule": "COc1ccc(C(=O)C2CCCN(C/C=C/c3ccccc3OC)C2)c(OC)c1", "note": "(stereo unspecified)", "FP activity change, negative = inhibition": "inactive: -24.3%"}
{"molecule": "CC(C)c1ccc(-n2nc3ccc(N)cc3n2)cc1", "Potency": "inconclusive: 12.6 µM [quencher, side channel, partial curve]"}
{"molecule": "CSCCC(NC(=O)c1ccccc1)C(=O)N/N=C(\\C)c1ccccc1", "note": "(stereo unspecified)", "Potency": "inconclusive: 17.8 µM [inhibitor, single point]"}
{"molecule": "COc1cc(NS(=O)(=O)c2ccc(N/C=C(\\C=O)c3nc4cc(Cl)ccc4o3)cc2)nc(OC)n1", "Potency": "inconclusive: 10 µM [quencher, side channel, partial curve]"}
{"molecule": "CC(C)C(NC(=O)C1CCC(C(C)(C)C)CC1)C(=O)NCCc1ccc(S(N)(=O)=O)cc1", "note": "(stereo unspecified)", "Potency": "inconclusive: 35.5 µM [fluorescent, side channel, single point]"}
{"molecule": "Cc1ccc(NS(=O)(=O)c2cc([N+](=O)[O-])ccc2NNC(=S)Nc2cccc(Cl)c2)c(C)c1", "Potency": "inconclusive: 10 µM [quencher, side channel, partial curve]"}
{"molecule": "COc1cc(/C=c2\\sc3n(c2=O)C(c2ccccc2)C(c2ccccc2)=NN=3)ccc1O", "note": "(stereo unspecified)", "Potency": "inconclusive: 14.1 µM [quencher, side channel, partial curve]"}
{"molecule": "NC(=O)C(=O)O", "Potency": "inconclusive: 39.8 µM [inhibitor, single point]"}
{"molecule": "O=C(CCCCCCCC(=O)NNC(=O)Nc1ccccc1)NNC(=O)Nc1ccccc1", "Potency": "inconclusive: 11.2 µM [fluorescent, side channel, partial curve]"}
{"molecule": "COc1ccc(C[C@H]2CN3C(=NC[C@H]3C)N2CCNC(=O)c2ccc(C)c(Br)c2)cc1", "Potency": "inconclusive: 8.91 µM [fluorescent, side channel, partial curve]"}
{"molecule": "COc1cc(/C=C/c2ccc3cccc([N+](=O)[O-])c3n2)ccc1OCC#N", "Potency": "inconclusive: 11.2 µM [quencher, side channel, partial curve]"}
{"molecule": "O=C(Nc1ccc2nc(C3CC3)n(Cc3ccc(F)cc3)c(=O)c2c1)c1ccco1", "Potency": "inconclusive: 28.2 µM [quencher, side channel, single point]"}
{"molecule": "CCOC(=O)c1c(/N=C/c2ccccc2O)sc2c1CCC2", "FP activity change, negative = inhibition": "inactive: -22.2%"}
{"molecule": "O=S(=O)(Nc1cccc(-n2cnnn2)c1)c1cc(Br)ccc1Br", "Potency": "inconclusive: 25.1 µM [quencher, side channel, single point]"}
{"molecule": "O=C(NC(=S)Nc1nc2c(s1)CCCC2)c1ccccc1", "Potency": "inconclusive: 39.8 µM [inhibitor, single point]"}
{"molecule": "Cc1c(Br)c([N+](=O)[O-])nn1CC(=O)N1CCc2ccccc21", "Potency": "inconclusive: 39.8 µM [inhibitor, single point]"}
{"molecule": "Cc1ccc(C2CC(c3ccc(Cl)cc3)=NNC2=O)cc1", "note": "(stereo unspecified)", "Potency": "inconclusive: 3.55 µM [fluorescent, side channel, full curve, poor fit]"}
{"molecule": "COc1cccc(NC(=O)Nc2ccc3nsnc3c2)c1", "Potency": "inconclusive: 10 µM [quencher, side channel, partial curve]"}
{"molecule": "CC(C)c1ccc(CNc2ncccn2)cc1", "Potency": "inconclusive: 39.8 µM [inhibitor, single point]"}
{"molecule": "COc1ccc(-c2cc(C(F)(F)F)nc(SCCC(=O)Nc3cc(C)on3)n2)cc1", "FP activity change, negative = inhibition": "inactive: 32.7%"}
{"molecule": "C/C(O)=C(\\N=Nc1cc(C)ccc1O)C(N)=O", "Potency": "inconclusive: 31.6 µM [quencher, side channel, single point]"}
{"molecule": "CC[N+]1(C)CC2CCC(C)(C1)C2(C)C", "note": "(stereo unspecified)", "FP activity change, negative = inhibition": "inactive: 5.28%"}
{"molecule": "CNC(=O)c1csc(-c2ccc(Cl)cc2)n1", "FP activity change, negative = inhibition": "inactive: -3.16%"}
{"molecule": "C[C@H](N)C(=O)N[C@@H](CO)C(=O)N[C@H](C(=O)N[C@H](C(=O)N[C@H](C(=O)N[C@@H](CC(N)=O)C(=O)N[C@@H](Cc1ccc(O)cc1)C(=O)N[C@H](C(=O)O)[C@@H](C)O)[C@@H](C)O)[C@@H](C)O)[C@@H](C)O", "FP activity change, negative = inhibition": "inactive: 6.86%"}
{"molecule": "N#CC1=C2SCN(c3ccccc3)CN2C(=O)CC1c1cccs1", "note": "(stereo unspecified)", "Potency": "inconclusive: 39.8 µM [quencher, side channel, single point]"}
{"molecule": "COn1c(-c2ccc(Cl)cc2)nc2ccc(Cl)cc21", "Potency": "inconclusive: 3.16 µM [inhibitor, single point]"}
{"molecule": "CCCCn1c(-c2cccc(Br)c2)nc2cc3[nH]c(=O)c(C(C)C)nc3cc21", "Potency": "inconclusive: 3.55 µM [fluorescent, side channel, full curve]"}
{"molecule": "CCOc1ccc2[nH]c3nc(SCC(=O)NC4CC4)nnc3c2c1", "Potency": "inconclusive: 39.8 µM [fluorescent, side channel, single point]"}
{"molecule": "COc1cc(-c2ccc(N=Nc3ccc4c(S(=O)(=O)O)cc(S(=O)(=O)O)c(N)c4c3O)c(OC)c2)ccc1N=Nc1ccc2c(S(=O)(=O)O)cc(S(=O)(=O)O)c(N)c2c1O", "Potency": "inconclusive: 12.6 µM [fluorescent, side channel, partial curve] and inconclusive: 8.91 µM [fluorescent, side channel, full curve]"}
{"molecule": "CN(C)c1cc2c(Nc3ccc4c(cnn4Cc4ccccc4)c3)ncnc2cn1", "Potency": "inconclusive: 12.6 µM [quencher, side channel, partial curve]"}
{"molecule": "CCCc1nnc(NC(=O)Cn2cnc3ccccc3c2=O)s1", "Potency": "inconclusive: 6.31 µM [inhibitor, single point]"}
{"molecule": "C#Cc1ccc([C@H]2C=C(C(=O)N3CCN(Cc4ccccc4)CC3)O[C@@H](OCC)[C@@H]2CCCO)cc1", "Potency": "inconclusive: 1.41 µM [inhibitor, full curve]"}
{"molecule": "Cc1cc(C)cc(NC(=O)CN2CCN(CCN=CC3=C(O)CC(C)(C)CC3=O)CC2)c1", "FP activity change, negative = inhibition": "inactive: 7.33%"}
{"molecule": "O=C(Nc1ccccc1C(=O)NCc1cccnc1)c1ccco1", "Potency": "inconclusive: 7.08 µM [fluorescent, side channel, single point]"}
{"molecule": "CCCc1nc2ccccc2c(=O)n1/N=C/c1c(C)[nH]n(-c2ccc(C)cc2)c1=O", "Potency": "inconclusive: 28.2 µM [quencher, side channel, single point]"}
{"molecule": "COc1ccccc1C(=O)NNC(=O)C(=O)Nc1ccc(C)c(Cl)c1", "Potency": "inconclusive: 25.1 µM [quencher, side channel, single point]"}
{"molecule": "CC(C)(C)c1ccc(C(=O)Nc2cccnc2)cc1", "FP activity change, negative = inhibition": "inactive: 23.1%"}
{"molecule": "CCOC(=O)c1c(C)c(C(=O)N2CCN(c3cccc(Cl)c3)CC2)c(C)n1C", "Potency": "inconclusive: 5.01 µM [fluorescent, side channel, full curve, poor fit]"}
{"molecule": "CC(C)c1ccc2c(c1)C1(NN=C(c3ccccc3)S1)C(=O)N2", "note": "(stereo unspecified)", "Potency": "inconclusive: 14.1 µM [quencher, side channel, partial curve]"}
{"molecule": "CCOC(=O)c1c(-c2ccc(C)o2)csc1N", "Potency": "inconclusive: 31.6 µM [quencher, side channel, partial curve]"}
{"molecule": "CC(=O)c1c(NC(=O)c2ccccc2)[nH]c(-c2ccccc2)nc1=S", "Potency": "inconclusive: 3.55 µM [quencher, side channel, full curve]"}
{"molecule": "COc1ccc2[nH]c(=O)c(CN(Cc3ccccc3)Cc3nnnn3CC3CCCO3)cc2c1", "note": "(stereo unspecified)", "FP activity change, negative = inhibition": "inactive: -20.1%"}
{"molecule": "CCSc1nc2sc3c(c2c(=O)n1C1CCCCC1)CCN(C)C3", "Potency": "inconclusive: 25.1 µM [fluorescent, side channel, single point]"}
{"molecule": "Cc1ccc(NCC(=O)N/N=C/c2ccc(OC(=O)c3ccco3)cc2)cc1", "Potency": "inconclusive: 4.47 µM [inhibitor, full curve, poor fit]"}
{"molecule": "CCOc1ccc(Cn2c(O)cc(=O)[nH]c2=O)cc1", "Potency": "inconclusive: 39.8 µM [quencher, side channel, single point]"}
{"molecule": "O=C(Nc1ccc(Cl)c(Cl)c1)Nc1ccon1", "Potency": "inconclusive: 39.8 µM [quencher, side channel, single point]"}
{"molecule": "O=C(O)Cc1sc(Nc2cccc3ccccc23)nc1-c1ccc(F)cc1", "Potency": "inconclusive: 25.1 µM [quencher, side channel, partial curve]"}
{"molecule": "O=C(N/N=C\\c1ccc(Cl)s1)c1cccs1", "Potency": "inconclusive: 20 µM [quencher, side channel, single point]"}
{"molecule": "COc1ccc(C(=O)NC(=S)Nc2ccccc2F)cc1", "Potency": "inconclusive: 39.8 µM [inhibitor, single point]"}
{"molecule": "COc1ccc(-c2nc3cnc(Nc4cccc(OC)c4)nc3n(CCC#N)c2=O)cc1", "Potency": "inconclusive: 6.31 µM [quencher, side channel, full curve]"}
{"molecule": "CCOc1ccc(CN(C)C(=O)[C@H](Cc2ccccc2)NC(=O)OCc2ccccc2)cc1OC", "Potency": "inconclusive: 10 µM [inhibitor, full curve, poor fit]"}
